Test results taken from the supplement of paper PMC3334620.
Over roughly 33,000 sequences, “E-score (-0.5 to 0.5)” has its median near -0.04; the highest 2% begin near 0.36. Some of the results follow.

biological target: T1, Hmlalpha2 (UniProt P0CY09); test: PBM E-score (8-mer binding enrichment) (E-score (-0.5 to 0.5)); higher = stronger / more preferred TF binding; most listed sequences are background and not binding sites; settings: protein concentration: 200 nM; construct: GST-full length
T1 sequence: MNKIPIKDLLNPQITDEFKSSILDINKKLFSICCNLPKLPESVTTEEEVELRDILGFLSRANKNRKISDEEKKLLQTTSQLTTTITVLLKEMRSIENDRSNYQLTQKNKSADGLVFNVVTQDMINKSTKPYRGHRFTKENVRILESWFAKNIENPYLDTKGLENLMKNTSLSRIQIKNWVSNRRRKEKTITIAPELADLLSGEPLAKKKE
In short: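 Bound GST-tagged yeast transcription factors, applied at about 100-200 nM to double-stranded universal all-10-mer Agilent arrays, were detected with fluorescent anti-GST. Scans were normalised with masliner. A modified Wilcoxon-Mann-Whitney statistic, the E-score, was assigned to each ungapped eight-base word pooled with its reverse complement by the Universal PBM Analysis Suite.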

| Sequence | PBM E-score |
| --- | --- |
| AGACGAGC | -0.124 |
| GCCGGAGA | -0.187 |
| CTGCGCTA | -0.238 |
| CCATGACG | -0.105 |
| GAATACCC | -0.19 |
| CTTTATAC | 0.127 |
| CGCCAGAC | 0.0655 |
| ACAAGTAA | 0.237 |
| CAGACTCC | -0.269 |
| ACTAATCT | -0.0687 |
| CATCCGCC | -0.253 |
| AGGCTGGA | -0.184 |
| ACACGATC | 0.426 |
| ATGATTCA | -0.00775 |
| CCGTCATC | -0.185 |
| AAGTTCGT | -0.0782 |
| GAGCTGCA | -0.253 |
| AGATTAGA | 0.0648 |
| CGCGCCCC | -0.278 |
| ATGACCTA | 0.049 |
| CTATGATC | -0.0399 |
| ATAACTAG | -0.0217 |

| Sequence | PBM E-score |
| --- | --- |
| GACGCACA | 0.00701 |
| ACCCTGAG | -0.0283 |
| ACCGGCTC | -0.166 |
| ACACCTCA | -0.0541 |
| ACTCTCGG | -0.0903 |
| TCCGAAAA | -0.213 |
| GAATCGGC | -0.18 |
| GATGGACA | -0.0833 |
| CACCCATA | -0.297 |
| CAAAGACC | 0.017 |
| GTTCAAAA | 0.175 |
| CCAGGTTA | 0.0279 |
| GTGAGAGA | 0.0289 |
| ACGTGACC | -0.0125 |
| ACGCAGCA | 0.2 |
| GATAAGCA | 0.168 |
| AGGCACAC | -0.173 |
| CATCTGAG | -0.137 |
| AGGGGTGC | -0.147 |
| CGATACTA | 0.105 |
| ATGATTGC | 0.0313 |
| AGCTTCGG | -0.265 |

| Sequence | PBM E-score |
| --- | --- |
| TGATGGCA | -0.185 |
| CACTATCG | -0.153 |
| CCATTAAA | -0.0126 |
| CGTTTATA | 0.148 |
| AGAAGATA | 0.14 |
| CTCCGCAA | -0.0446 |
| CACTGGCC | -0.196 |
| CCTCGAGG | -0.104 |
| CTTCCGGC | -0.0919 |
| GCGGACAA | -0.00678 |
| AGTATGCA | -0.0681 |
| AAGAGTTG | -0.0202 |
| CACTCGAA | 0.0674 |
| AGAGGGAT | -0.24 |
| AGTAGTGA | -0.0576 |
| CTCTACCA | -0.129 |
| GGCTATCA | -0.0448 |
| AGGGAGGG | -0.361 |
| CTCGCCAG | -0.231 |
| GTCCGGAC | -0.00671 |
| CACCCGGC | -0.221 |
| ACCAATCG | -0.00689 |

| Sequence | PBM E-score |
| --- | --- |
| ACCTCAGG | -0.273 |
| ACTCGCTG | -0.0125 |
| GTTCCAAC | 0.0866 |
| AGAATGAC | -0.0198 |
| CAGAGGCG | -0.0889 |
| CAGTCTTC | -0.119 |
| AAGTGAAT | 0.0965 |
| TAGTTACA | 0.32 |
| AGCTCGAG | -0.00073 |
| AACTAGAC | 0.109 |
| CGTATACG | 0.194 |
| ATCAGGCC | -0.252 |
| GAATTTCC | -0.0192 |
| GTCATATA | 0.228 |
| GAGCGCAC | -0.329 |
| AATCAGAT | 0.0318 |
| AAGTCGGA | -0.0616 |
| GAAGGAAC | -0.134 |
| TGCCGCCA | -0.142 |
| CTCTCGAA | -0.0478 |
| GTGAACTA | 0.103 |
| CGGAAGAG | -0.303 |

| Sequence | PBM E-score |
| --- | --- |
| GGATATGA | -0.0552 |
| AAAAATAC | 0.027 |
| ACAAACTC | 0.161 |
| ACCTACGG | -0.294 |
| GAAAGTGC | -0.26 |
| GAGCGACA | 0.16 |
| CTTTAAGA | -0.0198 |
| GCTGAGCA | 0.00749 |
| GCCCGCCC | -0.326 |
| GTTAACCA | 0.285 |
| CACAGTAA | 0.194 |
| GTGCAAGA | 0.0959 |
| ACTCACAT | 0.0984 |
| ATTATTCC | 0.027 |
| ACCGTTCA | -0.0934 |
| ATGGGTGG | -0.201 |
| ACGCAGAC | 0.135 |
| ATGTGACG | 0.0865 |
| CGAAGGTA | 0.0263 |
| GCACAGAC | 0.102 |
| GTAGCTGA | -0.0322 |
| ACATTTGG | -0.0401 |
